B1: CGCCCUU (DNA:RNA)
RNA: GGGAGACCGGAAUUCAGAUUGUCCCGCCCUUUUAAAUCCCGUCGUAGCCACCA
DNA 1: CAATCTGAATTCCGGTCTCCC
DNA 2: TGGTGGCTACGACGGGATT
B2: CUAACGA (DNA:RNA)
RNA: B1 RNA with G26U, C27A, C28A, U30G, U31A
DNA 1: CAATCTGAATTCCGGTCTCCC
DNA 2: TGGTGGCTACGACGGGATT
B3: UUAUCUC (DNA:RNA)
RNA: B1 RNA with C25U, G26U, C27A, C28U, U31C
DNA 1: CAATCTGAATTCCGGTCTCCC
DNA 2: TGGTGGCTACGACGGGATT
B4: UUUGCGG (DNA:RNA)
RNA: B1 RNA with C25U, G26U, C27U, C28G, U30G, U31G
DNA 1: CAATCTGAATTCCGGTCTCCC
DNA 2: TGGTGGCTACGACGGGATT
B5: CGGCGGC (DNA:RNA)
RNA: B1 RNA with C27G, C29G, U30G, U31C
DNA 1: CAATCTGAATTCCGGTCTCCC
DNA 2: TGGTGGCTACGACGGGATT
B6: UUUACCG (DNA:RNA)
RNA: B1 RNA with C25U, G26U, C27U, C28A, U30C, U31G
DNA 1: CAATCTGAATTCCGGTCTCCC
DNA 2: TGGTGGCTACGACGGGATT
B7: GAUACAA (DNA:RNA)
RNA: B1 RNA with C25G, G26A, C27U, C28A, U30A, U31A
DNA 1: CAATCTGAATTCCGGTCTCCC
DNA 2: TGGTGGCTACGACGGGATT
B8: AACCCCA (DNA:RNA)
RNA: B1 RNA with C25A, G26A, U30C, U31A
DNA 1: CAATCTGAATTCCGGTCTCCC
DNA 2: TGGTGGCTACGACGGGATT
B9: AAGCAAG (DNA:RNA)
RNA: B1 RNA with C25A, G26A, C27G, C29A, U30A, U31G
DNA 1: CAATCTGAATTCCGGTCTCCC
DNA 2: TGGTGGCTACGACGGGATT
B10: GGACAGA (DNA:RNA)
RNA: B1 RNA with C25G, C27A, C29A, U30G, U31A
DNA 1: CAATCTGAATTCCGGTCTCCC
DNA 2: TGGTGGCTACGACGGGATT
B11: ACGUGGC (DNA:RNA)
RNA: GGGAGACCGGAAUUCAGAUUGUCCACGUGGCUUAAAUCCCGUCGUAGCCACCA
DNA 1: CAATCTGAATTCCGGTCTCCC
DNA 2: TGGTGGCTACGACGGGATT
B12: GAUCGGU (DNA:RNA)
RNA: B11 RNA with A25G, C26A, G27U, U28C, C31U
DNA 1: CAATCTGAATTCCGGTCTCCC
DNA 2: TGGTGGCTACGACGGGATT
B13: CACUAAA (DNA:RNA)
RNA: B1 RNA with G26A, C28U, C29A, U30A, U31A
DNA 1: CAATCTGAATTCCGGTCTCCC
DNA 2: TGGTGGCTACGACGGGATT
B14: GGACCUG (DNA:RNA)
RNA: B1 RNA with C25G, C27A, U31G
DNA 1: CAATCTGAATTCCGGTCTCCC
DNA 2: TGGTGGCTACGACGGGATT
B15: GGGAUGA (DNA:RNA)
RNA: B11 RNA with A25G, C26G, U28A, G29U, C31A
DNA 1: CAATCTGAATTCCGGTCTCCC
DNA 2: TGGTGGCTACGACGGGATT
B16: AUUGCAC (DNA:RNA)
RNA: B11 RNA with C26U, G27U, U28G, G29C, G30A
DNA 1: CAATCTGAATTCCGGTCTCCC
DNA 2: TGGTGGCTACGACGGGATT
B17: CACUUUG (DNA:RNA)
RNA: B1 RNA with G26A, C28U, C29U, U31G
DNA 1: CAATCTGAATTCCGGTCTCCC
DNA 2: TGGTGGCTACGACGGGATT
B18: GAUGGGA (DNA:RNA)
RNA: B11 RNA with A25G, C26A, G27U, U28G, C31A
DNA 1: CAATCTGAATTCCGGTCTCCC
DNA 2: TGGTGGCTACGACGGGATT
B19: AAGUUCC (DNA:RNA)
RNA: B11 RNA with C26A, G29U, G30C
DNA 1: CAATCTGAATTCCGGTCTCCC
DNA 2: TGGTGGCTACGACGGGATT
B20: CGAAUUG (DNA:RNA)
RNA: B1 RNA with C27A, C28A, C29U, U31G
DNA 1: CAATCTGAATTCCGGTCTCCC
DNA 2: TGGTGGCTACGACGGGATT

Residue numbers refer to the chain shown, from its start. The list shows a part of the results.

In the test the target is T1, RBFOX1 RRM (Homo sapiens, UniProt Q9NWB1 109-208).
T1 sequence: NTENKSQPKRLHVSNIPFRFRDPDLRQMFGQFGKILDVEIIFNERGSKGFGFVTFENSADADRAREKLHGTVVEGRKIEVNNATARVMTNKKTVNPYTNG
Nature of the test: EMSA; HiTS-Eq, 1 nM pool, 10 min; buffer printed only for the single-RNA assays: 10 mM Tris pH 7.5, 150 mM NaCl, 3.4 mM EDTA, 0.001% NP-40, 30 C. Conditions: tags: His6 N-terminal (pET28a); label: 5' 32P. A digest of the protocol: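 These values rest on relative association constants, computed from read-count changes of each RNA species versus the control reaction and normalised to the cognate motif. Reads came from free RNA recovered by 8% native PAGE after purified RbFox RRM (wild type or mutant) at increasing concentrations was equilibrated for 10 min in 50 µL with 1 nM of a 5′-radiolabelled pool with 7 randomized nucleotides and DNA-annealed flanks.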
In general terms: In EMSA bound probe runs differently from free probe, usually more slowly.
On to B1, for which the binding signal is 0.00818 KA relative to UGCAUGU.

As to B2, the binding signal is 0.00482 KA relative to UGCAUGU. With B3 the figure was 0.00713 KA relative to UGCAUGU; with B4, 0.018 KA relative to UGCAUGU. For B5 the value was 0.0185 KA relative to UGCAUGU; for B6, 0.00569 KA relative to UGCAUGU; for B7, 0.00227 KA relative to UGCAUGU. With B8 the figure was 0.00033 KA relative to UGCAUGU; with B9, 0.00797 KA relative to UGCAUGU.

Regarding B10, the binding signal was 0.0189 KA relative to UGCAUGU.

Turning to B11, the binding signal is 0.0095 KA relative to UGCAUGU. For B12 the value was 0.0158 KA relative to UGCAUGU. In the case of B13, the binding signal is 0.00134 KA relative to UGCAUGU. For B14 the value was 0.0243 KA relative to UGCAUGU; for B15, 0.0379 KA relative to UGCAUGU; for B16, 0.0167 KA relative to UGCAUGU. For B17 the value was 0.0116 KA relative to UGCAUGU; for B18, 0.00898 KA relative to UGCAUGU; for B19, 0.00672 KA relative to UGCAUGU. With B20 the figure was 0.00904 KA relative to UGCAUGU.

The values are drawn from article PMC9911399, “Two distinct binding modes provide the RNA-binding protein RbFox with extraordinary sequence specificity”.
